Source: PubChem BioAssay AID686979 (National Center for Advancing Translational Sciences (NCATS), 2013)
“And” between values parts separate entries of the source, which are not always exact repeats. Equal entries are not always repeated. Hit rate of the full screen: of about 420,000 compounds, about 50,000 (12%) were called active. The inconclusive results got no clear call from the source; some entries with a clear call stand among them for comparison. Calls follow the shape of the dose curve; as a rule, active = well fitted inhibition curve with a large enough effect; inconclusive = small, poorly fitted or top-dose-only effect; inactive = flat fitted curve, though single readings scatter. Potencies of inconclusive entries are doubtful fits and often do not repeat.

Test: qHTS for Inhibitors of human tyrosyl-DNA phosphodiesterase 1 (TDP1): qHTS in cells in presence of CPT; also: nearly all actives have a fitted effect of over 55% in size
Settings: chicken DT40 Tdp1-/-;hTDP1 cells + 20 nM CPT, ATP luminescence, 48 h; activity change, negative = growth inhibition: at 46.2 µM (top of the series)
Summary of the method: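 Cell growth measured by CellTiter-Glo luminescence after a minimum 48 h, 37 C compound exposure with 20 nM CPT in Tdp1-knockout DT40 cells stably expressing hTDP1, seeded 400/well; qHTS titration format.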
% is scaled to controls: 0 for no effect and ±100 for the full control effect; potency is read from the fitted curve at half-maximal effect; tags tell the direction and shape of the fitted curve.

SMILES	Potency	activity change, negative = growth inhibition
Cc1ccccc1OCC(=O)Nc1ccc2nc(SCC(=O)N(C)c3ccccc3)sc2c1	active: 18.4 µM	
NC(=O)c1ccsc1NC(=O)CCS(=O)(=O)c1ccc(Cl)cc1	inconclusive: 16.4 µM [inhibitor, single point]	
Cn1ncc2c(NNC(=O)c3ccccc3Cl)ncnc21	inactive	
C=CCn1c(SCC(=O)Nc2sccc2C(N)=O)nc2sc(C)c(C)c2c1=O		inconclusive: -33% [inhibitor]
COC(=O)C1Cc2c([nH]c3ccccc23)C2(CCN(Cc3ccccc3)CC2)N1 (configuration not stated)	inconclusive: 29.1 µM [inhibitor, single point]	
CCOc1ccccc1NC(=O)CCS(=O)(=O)c1ccc2c(c1)CC(C)N2C(C)=O (configuration not stated)	inactive	
COc1ccc(Cl)cc1NC(=O)c1cc2ccc3ccc(C)[nH]c3c2n1	inconclusive: 23.1 µM [inhibitor, single point]	
CC(Oc1cccc(Cl)c1)C(=O)Nc1ccncc1 (configuration not stated)	inconclusive: 29.1 µM [inhibitor, single point]	
NC(=O)C1(N2CCCCC2)CCN(Cc2ccc(Br)cc2)CC1	inconclusive: 18.4 µM [inhibitor, single point]	
Cc1cccc(C)c1OCC(=O)Nc1cc(Cl)ccc1-n1cncn1	inactive	
COc1ccc(C)cc1S(=O)(=O)N(C)CC(=O)Nc1ccc2c(c1)OCCO2	inconclusive: 25.9 µM [inhibitor, single point]	
N#Cc1c(NC(=O)CSc2nc(-c3ccco3)cc(C(F)(F)F)n2)sc2c1CCCC2	inconclusive: 29.1 µM [inhibitor, single point]	
CCN1CC=C2C(C#N)=C(N)C(C#N)(C#N)C(c3cc(Cl)ccc3Cl)C2C1 (configuration not stated)	active: 18.4 µM	
Cc1ccc(CNC(=O)COC(=O)Cc2ccc(-c3ccccc3)cc2)cc1	inconclusive: 25.9 µM [inhibitor, single point]	
CCOc1cc(-c2ccc3c(c2)OCO3)cc(=[O+]CC)c2c(C)oc(C)c12	inconclusive: 22.4 µM [inhibitor, single point] and inconclusive: 35.5 µM [inhibitor, single point]	
C=CCNC(=O)c1ccc2c3n(nc2c1)-c1ccc(C)cc1CO3	active: 20.6 µM	
COc1cc(NC(=O)c2cc(-c3cccs3)on2)c(OC)cc1Cl	inconclusive: 6.51 µM [inhibitor, partial curve]	
Cc1ccc(NS(=O)(=O)c2ccc(NC(=O)c3ccc(Br)o3)cc2)c(C)c1	inconclusive: 29.1 µM [inhibitor, single point]	
CCCN1C(=O)c2ccccc2NC1c1ccc(Br)cc1 (configuration not stated)	inactive	
Cc1sc2nc(CN3CCCCC3)nc(Cl)c2c1C	inconclusive: 18.4 µM [inhibitor, single point]	
CC(C)CC(NC(=O)c1ccc(Cl)cc1)C(=O)OCc1cc([N+](=O)[O-])cc2c1OCOC2 (configuration not stated)	inactive	
O=C(c1cc(-c2ccc(Cl)cc2)on1)N(Cc1cccc(F)c1)Cc1ccco1	inconclusive: 29.1 µM [inhibitor, single point]	
O=C(CN(c1ccccc1)S(=O)(=O)c1ccccc1[N+](=O)[O-])Nc1ccccc1C(=O)N1CCOCC1	inactive	

SMILES	Potency	activity change, negative = growth inhibition
Cc1ccc(Cn2c(CNS(=O)(=O)c3ccc(C(C)(C)C)cc3)nc3cccnc32)cc1	inconclusive: 23.1 µM [inhibitor, single point]	
CCc1ccc(NC(=O)CSc2c(C)cnc3c2c(=O)n(C)c(=O)n3C)cc1	active: 23.1 µM	
Cc1ccc(NC(=O)c2cc(S(=O)(=O)N3CCc4ccccc43)cn2C)cc1C	inconclusive: 13 µM [inhibitor, partial curve]	
COc1ccccc1CNc1nc2ccccc2c2nc(-c3cccnc3)nn12	inconclusive: 8.2 µM [inhibitor, partial curve]	
C=CCn1c(SCc2nc3cc(C(=O)OC)ccc3c(=O)[nH]2)nc2sc(CC)cc2c1=O	inconclusive: 29.1 µM [inhibitor, single point]	
CCCN(CCC)S(=O)(=O)c1ccc(C(=O)Nc2nc(-c3ccccc3)c(C(=O)OCC)s2)cc1	inconclusive: 29.1 µM [inhibitor, single point]	
Cc1cccc(C(=O)NCC(c2ccco2)N2CCc3ccccc32)c1 (configuration not stated)	inconclusive: 20.6 µM [inhibitor, partial curve]	
COc1ccc(NC(=O)C(=O)NCCc2ccc(OC)c(OC)c2)c(OC)c1	inconclusive: 14.6 µM [inhibitor, partial curve, poor fit]	
CCOC(=O)C1CCCCN1C(=O)/C(=C/c1ccc(OC)cc1)c1ccc(OC)c(OC)c1 (configuration not stated)	active: 18.4 µM	
CN(C(=O)c1sc2nc(N3CCCC3)c3c(c2c1N)CC(C)(C)OC3)c1ccccc1	inconclusive: 23.1 µM [inhibitor, single point]	
NNC(=O)CN1C(c2cccc(Cl)c2)=Nc2ccc(Br)cc2C1c1ccccc1 (configuration not stated)	inconclusive: 29.1 µM [inhibitor, single point]	
O=c1nc(-c2ccccc2)n(-c2ccccc2)c2ncccc12		inconclusive: -33.7% [inhibitor]
Cc1c(C2(O)CCCCC2)[nH]c2ccc(C(F)(F)F)cc12	inconclusive: 29.1 µM [inhibitor, single point]	
CCc1ccc(CNc2ccc(N3CCN(C(C)=O)CC3)cc2)cc1	inactive	
COc1cc(CNCc2cccc(OC)c2OC)cc(OC)c1	inconclusive: 25.9 µM [inhibitor, single point]	
COc1ccc(C2=CC(=O)C[C@H](CN3C(=O)c4ccccc4C3=O)N(C(=O)OC(C)(C)C)O2)cc1	inconclusive: 18.4 µM [inhibitor, single point]	
O=C(C1=C[C@H](c2ccc3c(c2)OCO3)C[C@H](OCc2ccc(CO)cc2)O1)N1CCCCCCC1	inconclusive: 29.1 µM [inhibitor, single point]	
COCCCNC(=O)c1cnn(-c2ccccc2Cl)c1C1CCN(C(=O)OC(C)(C)C)CC1	inconclusive: 16.4 µM [inhibitor, single point]	
Cc1nn(CC(C)C)c(Cl)c1C(=O)N(C)CC(=O)Nc1c(Cl)cccc1Cl	inactive	
CCOC(=O)C(Cc1ccc(NC(=O)/C(=C/c2ccc(OC(C)=O)cc2)NC(C)=O)cc1)N1C(=O)c2ccccc2C1=O (configuration not stated)	inconclusive: 25.9 µM [inhibitor, single point]	
N#CC1=C(N)OC2=C(CCc3ccccc32)C1c1ccccc1Cl (configuration not stated)	active: 4.61 µM	
Nc1ncnc2c1ncn2[C@@H]1O[C@H](C(=O)N(CCC2=CCCCC2)CC2CC2)[C@@H](O)[C@H]1O	inconclusive: 11.6 µM [inhibitor, partial curve]	
COC(=O)c1ccc(NC(=O)CSc2cn(CC(=O)N3CCCCCC3)c3ccccc23)cc1	inconclusive: 18.4 µM [inhibitor, single point]	

SMILES	Potency	activity change, negative = growth inhibition
COc1ccc2[nH]c(=O)c(CN(C)C(=O)COc3ccccc3)cc2c1	inconclusive: 29.1 µM [inhibitor, single point]	
O=C(O)C(Oc1ccc(Cl)cc1)c1ccc(Cl)cc1 (configuration not stated)	inactive	
COCCN1C(=O)N(c2ccc(Cl)cc2)C(=O)C1CC(=O)Nc1cc(OC)cc(OC)c1 (configuration not stated)	inconclusive: 14.6 µM [inhibitor, partial curve, poor fit]	
COC(=O)c1ccc2[nH]c(C3(O)CCCCC3)c(C)c2c1	inconclusive: 29.1 µM [inhibitor, single point]	
COc1ccc(NC(=O)/C(C#N)=C/c2ccc(Sc3nncn3C)c([N+](=O)[O-])c2)cc1	active: 16.4 µM	
Cc1ccc(-c2nc3ccc(Cl)cn3c2Cc2cccc(F)c2)cc1	active: 20.6 µM	
COc1ccc(-c2[nH]ncc2N=Nc2ccccc2)cc1	inconclusive: 29.1 µM [inhibitor, single point]	
COc1ccc(CNC(=O)C2CCN(C(=O)c3ccc(-n4ccc5ccccc54)s3)CC2)cc1	active: 10.3 µM	
OC[C@H]1OC([S-])[C@H](O)[C@@H](O)[C@@H]1O.[Au+] (some centres not stated)	active: 23.7 µM	
COc1cc(CC(=O)OCC(=O)N2CC(=O)Nc3ccccc32)cc(OC)c1OC	inactive	
CCCOc1nc2c(c(=O)n(C)c(=O)n2C)n1Cc1cccc2ccccc12	active: 11.6 µM	
COc1ccc(NC(=O)/C(N=Nc2ccc(Cl)c(S(=O)(=O)Nc3ccc(Cl)cc3)c2)=C(\C)O)cc1	inactive	
COCCn1c(COc2ccc(OC)cc2)nc2ccccc21		inconclusive: -30.3% [inhibitor]
CCOC(=O)c1ccc(NC(=O)NCc2c(C)nn(CC)c2C)cc1	inconclusive: 18.4 µM [inhibitor, single point]	
O=C(CN1CCN(c2ccccc2F)CC1)NCc1ccc(Cl)cc1	inactive	
Cc1noc(C)c1-c1ccc(C(=O)NCCC(F)(F)F)c2occc12	active: 14.6 µM	
CC1=Nc2cc(C(=O)NC3CCCC3)ccc2Sc2ccc(C)cc21	active: 1.16 µM	
CCn1c(=O)c(C(=O)Nc2ccccc2F)c(O)c2ccccc21	inconclusive: 20.6 µM [inhibitor, single point]	
CCC(=O)Oc1ccc(C/C(=N\O)c2ccc(O)cc2O)o1	inconclusive: 20.6 µM [inhibitor, single point]	
CC(Sc1ccc(Cl)cc1)C(=O)N(C)CC(=O)Nc1ccc(N2CCOCC2)cc1 (configuration not stated)	inconclusive: 23.1 µM [inhibitor, single point]	
COc1ccc(OC)c(Cc2nnc(CCC(=O)N3CCN(C4CCCC4)CC3)o2)c1	inactive	
